Source: the supplement of paper PMC11417369
± gives the standard deviation of the averaged measurements. The list shows a part of the results.

The sequences below were run on PfAP2-G AP2 domain (GST-tagged) (assay: gcPBM binding intensity (ln(normalized median fluorescence intensity)); higher = stronger DNA binding).
Summary of the method: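 Binding intensity is defined as the maximum Masliner-normalised natural-log median intensity across replicate spots for either probe orientation. It was measured on an Agilent 4 × 180k array of primer-extended double-stranded 36-bp intergenic genomic probes and negative controls, to which GST-tagged P. falciparum DNA-binding domains made in E. coli were applied for 1 h in 1× PBS with 1% milk, 0.2 mg/ml BSA, 0.5% salmon testes DNA and 0.03% Triton X-100. Detection was by Alexa488 anti-GST antibody and scanning at 488 nm.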

| Sequence | gcPBM binding intensity (ln) |
| --- | --- |
| TAAGCAAAAATAATTACACACAAATTTATAAAAAAT [CACACA_site3377] | 9.83 ± 0.057 |
| ATAAAAATATAATTGAGTACATATGAATAGTCCTAT [XGTACX_site6281] | 11.4 ± 0.76 |
| ATTTTGTTTTTTTTTGCACACCATAAGGAGTGTAGG [CACACA_site1414] | 10.3 ± 0.31 |
| ACAACACATATTCATCGTACATGTATTAGGAAGACA [XGTACX_site1859] | 10.9 ± 0.51 |
| TATATAAAAATATGTTGTACGCATTTATAAATATAT [XGTACX_site3758] | 11.6 ± 0.98 |
| ATTTTTTTTTTTTTTTTTTTTTTTTTTGAATTCACA [CACACA_negctrl_site982] | 9.63 ± 0.17 |
| TTTTATATATAATTCACACAAAAAAGATACATAAGA [CACACA_site5332] | 10.3 ± 0.25 |
| GAATAATCCAAACACACACACACACCCGAATAAATA [CACACA_site482] | 10.2 ± 0.33 |
| GAAATCTAAATAGAAACACACATATATAAATAAATA [CACACA_site7762] | 9.65 ± 0.21 |
| AATAGTTCTTGAACGTGTACATAAAATATAATTTAC [XGTACX_site11] | 11.3 ± 0.86 |
| TTCTATTTTTTAAAAGTGCATATTATAAATATATAT | 10.2 ± 0.26 |
| ATATCTAATAAAAATACACACACATATGATTTGTGA [CACACA_site8558] | 9.77 ± 0.099 |
| TATATAGAATTATATGCATGTTCAAAAAAATACAAC [TGCATGCA_site431] | 10 ± 0.17 |
| TAGTATTTATATGTTATATATATAAAATAATACAGT [XGTACX_negctrl_site571] | 10 ± 0.39 |
| AATTAGCATAAATGGGTGCTACACAAAAATGCATGT [GTGCAC_site9640] | 10.2 ± 0.15 |
| ATATAATATATGTTATGTACATAGTTTTTATTGTTC [XGTACX_site7438] | 11.1 ± 0.79 |
| AATATATAATCAGATGAATTTTTTTTTTTTTTTTCA [CACACA_negctrl_site534] | 9.26 ± 0.2 |
| ATATAAATATGAAAAAGTACAAGCCATCAAGAAATC [XGTACX_site8140] | 11.1 ± 0.69 |
| AATTTTTTATTCTTTGCATGTCATCATATATAATAT [TGCATGCA_site549] | 9.95 ± 0.15 |
| ATATAATGTTAGGGTAGAGGAAGTAACTAATATAAA [CACACA_negctrl_site1153] | 10.05 ± 0.057 |
| TTTAAAATTTAATTTTGTACATATACCAATTTTATT [XGTACX_site448] | 10.9 ± 0.52 |
| TATAAATATTATAATTGTACATATTATAAAAATTTT [XGTACX_site2719] | 11 ± 0.75 |

| Sequence | gcPBM binding intensity (ln) |
| --- | --- |
| TACCAAAAAACGGCACGCATATGTATAAGAATATGT [XGTACX_negctrl_site470] | 9.95 ± 0.24 |
| AGCAACTAAAAAGGATACCCCATTAAAAAAAAATTA [XGTACX_negctrl_site489] | 10.5 ± 0.44 |
| TGTGTATAAAAAAAGTGTACACAAAGTAAGACTTTA [XGTACX_site3759] | 11.7 ± 0.86 |
| TTATATAACATAACGATGTTTCAAAACATATTGTAT [CACACA_negctrl_site997] | 9.815 ± 0.035 |
| TTATAAAGAATTAGGAGTACAAATGCATATATAATA [XGTACX_site6580] | 11.5 ± 0.99 |
| AAATATATAAAAGTATGTACATATGAAAAATATATA [XGTACX_site6165] | 11.3 ± 0.69 |
| TACTTATGTTCGCACACATGCAAATTAAAAAAAAAA [TGCATGCA_site1023] | 10.3 ± 0.45 |
| TACATATACATATTGTGTACATAATAATTATTTATA [XGTACX_site7884] | 11.5 ± 0.92 |
| TATTAATAATTTTCATGTACATATGTATTTGTAATA [XGTACX_site858] | 11.2 ± 0.65 |
| ATATAATAAATGTCATGTACATACAACATTTTAACT [XGTACX_site7517] | 11.1 ± 0.52 |
| TGAATAAAGAAACACACACACATATATATATATGTA [CACACA_site17] | 9.765 ± 0.007 |
| TTTTTAATTTACTGTCATAGGTACCTTAACTTATCA [CACACA_negctrl_site1664] | 10.8 ± 0.47 |
| TTAATTAAGAAACACACACACATATATATATATATT [CACACA_site2290] | 9.815 ± 0.078 |
| TATTATATATATGCACGTACAAAAATAATAAAGGTA [XGTACX_site3506] | 11.3 ± 0.8 |
| TCTCTTTTTCGTTCATGTACAAATAAATAAAAATAT [XGTACX_site6558] | 10.9 ± 0.69 |
| TTATATATATGACTTTGTACATATACATATTTTTTA [XGTACX_site4669] | 10.7 ± 0.54 |
| GTATATTTTATTTTATGTACATATTCATTTTTTATT [XGTACX_site561] | 11.4 ± 0.66 |
| ATTTTTTTACTGGATCCATATTTGCTTTTTTATTTA [CACACA_negctrl_site1108] | 10.27 ± 0.064 |
| GTGGATATATGTATATGTACATATGTATGTATATAT [XGTACX_site2412] | 11.1 ± 0.46 |
| TCTTACTAATTTATGGGGACTTATCACCTATTCAGT [CACACA_negctrl_site652] | 10.5 ± 0.23 |
| AGTGGATAAATTTATTCACACATTTTTTTTTTTTTT [CACACA_site5914] | 9.8 ± 0.19 |
| TTTTATGAGAAACACACACACAAAAAAAAAAAAAAA [CACACA_site4129] | 9.92 ± 0.61 |

| Sequence | gcPBM binding intensity (ln) |
| --- | --- |
| TACATATATATATATGAACACACAAAAAGAATATTT [CACACA_site8421] | 9.97 ± 0.11 |
| ATAAGCATACATATTACACACATATAATATATATAT [CACACA_site2487] | 10.1 ± 0.18 |
| CATGAATCCTAATAATGTACATAAGAATTCATAATG [XGTACX_site1607] | 11 ± 0.65 |
| TCAATAATAAAAAACACACACAAAAAAAAATAATTA [CACACA_site2798] | 10 ± 0.28 |
| AACAAAGTCATACATACATACATATATATATATATA [GTGCAC_negctrl_site632] | 10 ± 0.27 |
| TAAAAAAAAAAAAAAACACACATATAAATATTTATA [CACACA_site6702] | 9.55 ± 0.071 |
| AAAAAAAAAAAAAAAACACACATACACATATATTTT [CACACA_site7768] | 10.3 ± 0.23 |
| TATATTATTTATAGTAGTACATAAAATATAAATATT [XGTACX_site4417] | 11.4 ± 0.89 |
| ATAATACATACATACATACACACATATATATATATT [CACACA_site3576] | 10.2 ± 0.13 |
| TATTGTATTTCATATTGTACTAAAAAAAAAAAAAAG [XGTACX_site6694] | 11.2 ± 0.83 |
| AAAAAAAAAAAAAATTGTACTTAAATATATATATAT [XGTACX_site7604] | 11.1 ± 0.8 |
| TATTATTTTTCATATGCATGCAAAAATAAAAAAATA [TGCATGCA_site350] | 9.96 ± 0.23 |
| TATAAAAAAAAAAAAAAAAAAAAAAATATATATATA [CACACA_negctrl_site817] | 9.6 ± 0.45 |
| ATGAAAAAAAAAAAAAAAAAAAAAAAAAAAAAAATA [CACACA_negctrl_site1083] | 9.54 ± 0.2 |
| ATTTTTTTGTATATATATGACTGGGGATATAATCAA [GTGCAC_negctrl_site274] | 10.1 ± 0.12 |
| AAATTAAAATAAAATAGTACATATATTTATATTTTT [XGTACX_site1687] | 11.1 ± 0.69 |
| TTTTGGTGTATAGTATTAATATAAAATAATTATATT [CACACA_negctrl_site47] | 10.2 ± 0.17 |
| AATTTATATTTATGTGCATGTAATAACTGTATATAA [TGCATGCA_site349] | 10.2 ± 0.23 |
| AAAAAAAGATTATACACACACATATATAAACATACA [CACACA_site4553] | 9.915 ± 0.007 |
| ACATACATATATTTATGTACATATATATTTATGATT [XGTACX_site6485] | 11.2 ± 0.56 |
| TTAGCTTATCATTACTGTACTTTATTCATATATATG [XGTACX_site8008] | 11.4 ± 0.84 |
| TAAACATTCTTATATAGTACCCATATTAAAATATAC [XGTACX_site8014] | 10.8 ± 0.58 |

| Sequence | gcPBM binding intensity (ln) |
| --- | --- |
| ATTTTTTTTTCTTGTACACACTATTTTATAATTTTA [CACACA_site6102] | 11.6 ± 0.93 |
| TTTTTTTTTGAAAAAAGTACTTAATTTTTAAGAAGA [XGTACX_site3591] | 11.2 ± 0.85 |
| TCTAATAATAAATACACACACATATATATTTATATA [CACACA_site5169] | 9.99 ± 0.15 |
| ATACAGATAGGATGCACACATAATTCAAATACAATA [CACACA_site4531] | 10.2 ± 0.13 |
| ATATAATAATAATATTGTACAATAAAAAATATATAT [XGTACX_site7350] | 10.9 ± 0.5 |
| ATGTCAAGAACTGAACGTACAAACTTTGTAATATTG [XGTACX_site8754] | 11.1 ± 0.64 |
| AGTAATAATCGGCATGCATGTCAGTGGTAGTATATA [TGCATGCA_site312] | 10.3 ± 0.41 |
| AAATTTTATGTATAATGTACACATAAATTTTTCTTT [XGTACX_site7266] | 11.4 ± 0.76 |
| GTCAACAAGAATTAAGTGCATAATTTTTTATTAAAT [GTGCAC_site9492] | 10 ± 0.11 |
| TTAAGTAGTACATACACACACATATACAAAAAGAAA [CACACA_site3972] | 11.7 ± 1.2 |
| TACTTTTTTCCTATTATGTTTCTTATTTTTATAAAT [XGTACX_negctrl_site561] | 10.3 ± 0.2 |
| AAGGAATGCATATAGGTGCTACACATAAAAATAAAA | 10.1 ± 0.057 |
| TATTATTTTAATTATTCACACATTATTATAAAAATT [CACACA_site5538] | 9.89 ± 0.085 |
| CATATACACGAACACACACACATATAAATAAATATA [CACACA_site6379] | 10.3 ± 0.37 |
| AGTAAAAAAAAAAAAAAAAAAAAAAAAAAAAAAAAA [GTGCAC_negctrl_site147] | 9.81 |
| TATTAATATTTTTGTTGTACTTAAAAATGATGGTAG [XGTACX_site3501] | 11.4 ± 0.77 |
| GGAATATTAAAAAAATGTACAAAAAATAATATCCAT [XGTACX_site2596] | 10.9 ± 0.4 |
| TTTATTAATAATTATACACACATATAAAATGAATAA [CACACA_site1359] | 9.97 ± 0.12 |
| AAAATATCTTGTTACTGTACAAATATAAATAAATAC [XGTACX_site3684] | 10.9 ± 0.65 |
| TATAATGTTAAATAATGTACATATATTTTTTTTTTT [XGTACX_site4722] | 11.1 ± 0.74 |
| TATATATATTAAAAAGTGCATTATTCATATTATATA [GTGCAC_site9400] | 9.85 ± 0.23 |
| TTACAATTTAATATATGTACATATTTGTGATTTATC [XGTACX_site2911] | 11.2 ± 0.64 |
